Reference: the RNAGym collection of RNA variant scans (doi:10.7554/elife.90254)
Read counts are not given, so values of variants with three or more changes are uncertain.

B1: LINE1-mini (parent)
chain: GGCAGAGCUCAACACAGCGUGGCAAAGUGGCUGUGGCUAGACUGCC

Variants of: B1
Assay: self-cleavage, relative activity (ratio to wild type); higher = more cleavage; in vitro, sequencing; the parent is a self-cleaving ribozyme
G2C A14C G27A G35A gave a self-cleavage of 0.02.
For C3A A4C C8U A16C C18U C31G, the self-cleavage was 0.46.
With A4G C15U G21A U32C the self-cleavage was 0.03.
Work on C3U A4C C31A G40U G44U yielded a self-cleavage of 0.01.
For A11C G27U G33U C37G, the self-cleavage was 0.
With G22A G36A C46U the self-cleavage was 0.15.
With A14G C18A A24U G40C C46A the self-cleavage was 0.24.
G7U C13G C23U A41C C46U showed a self-cleavage of 0.17.
Variant G5A U34C A39G has a self-cleavage of 0.05.
Variant A25C U28C G36A G40A has a self-cleavage of 0.16.
Work on G2U A16G U34A C45A yielded a self-cleavage of 0.01.
C15A C37G C45U C46A showed a self-cleavage of 0.02.
For A4C G7C U32A C42U, the self-cleavage was 0.12.
Variant C13G A16C G21A G35C C42G C45A has a self-cleavage of 0.08.
G17C G33U G36U gave a self-cleavage of 0.02.
Variant A6U G27C U43A has a self-cleavage of 0.11.
Work on G5A A12G G44U yielded a self-cleavage of 0.02.
Variant G2C U20G C23G has a self-cleavage of 0.07.
G30U G33A G35U showed a self-cleavage of 0.12.
For A16U A26G G29U G30A U38A A41U, the self-cleavage was 0.03.
For C3A G21U G29U G44A, the self-cleavage was 0.66.
For G2U C37A A39C, the self-cleavage was 0.04.
In the case of A4U A16G C18G G22C G30A C37A, the self-cleavage is reported as 0.02.
Work on A12C A25G C45U yielded a self-cleavage of 0.01.
A4G C13A U28G U32C C37A showed a self-cleavage of 0.03.
For U28C C37U U38C C42G C45G, the self-cleavage was 0.01.
For G2U C8G C31G, the self-cleavage was 0.03.
Variant G1C C18A U28C C31G has a self-cleavage of 0.01.
Work on A6U G7U U28C G30U A39U yielded a self-cleavage of 0.01.
A4C C8G C31G G44A gave a self-cleavage of 0.02.
C10G C15G C23U showed a self-cleavage of 0.03.
A24G G30A G44C showed a self-cleavage of 0.15.
In the case of A24U U32G G33C C42U, the self-cleavage is reported as 0.01.
For G5C C8U C31A U34G G35A U38A, the self-cleavage was 0.05.
For C15U U20G U34C G44C, the self-cleavage was 0.01.
Variant C10G C37G A41C C42U has a self-cleavage of 0.
With G2C C15A G22C the self-cleavage was 0.06.
In the case of A12G G17U G30U U34G U38G A41U C46U, the self-cleavage is reported as 0.27.
With C13A A14G U32A G33C U34G the self-cleavage was 0.01.
Variant G2C G7C A24U A26G G40C G44A has a self-cleavage of 0.01.
G21U G44C C45A gave a self-cleavage of 0.02.
With C8A C18A G33C the self-cleavage was 0.11.
A14C C23A U43A showed a self-cleavage of 0.03.
For G5C A6U G35A U38G, the self-cleavage was 0.06.
In the case of A16G G22A A26G, the self-cleavage is reported as 0.08.
For A6C C15A G19C C23G, the self-cleavage was 0.35.
U20C G21U U34A showed a self-cleavage of 0.13.
G22A C31A U43C showed a self-cleavage of 0.07.
G7A A39G C46U showed a self-cleavage of 0.
Variant C13U G30C C37U C45U has a self-cleavage of 0.11.
Variant C23A G35U U38A has a self-cleavage of 0.03.
With A12U G33U G35A the self-cleavage was 0.
Work on G27U G33C G40A yielded a self-cleavage of 0.02.
Variant A12C C23A G36A has a self-cleavage of 0.04.
With U9C G40A A41C U43C the self-cleavage was 0.02.
In the case of A4C C8A A16U G22C U38C, the self-cleavage is reported as 0.22.
Variant G5A A11G C45A has a self-cleavage of 0.02.
A11U G35U A39C C42U showed a self-cleavage of 0.04.
U9A C23G U34A gave a self-cleavage of 0.24.
Work on C10A A26U U38G yielded a self-cleavage of 0.14.
Work on A25U C31U U32G U34C G44U yielded a self-cleavage of 0.04.
For G1U G2U A12U A24U, the self-cleavage was 0.03.
C31G G36A C42G showed a self-cleavage of 0.02.
G5A G7C C10U A14C C15U A24U U38C gave a self-cleavage of 0.05.
In the case of A12C C31U U34C C42A, the self-cleavage is reported as 0.01.
In the case of A11G A16U A26G C42A, the self-cleavage is reported as 0.
For G21A U28G C37U, the self-cleavage was 0.03.
Work on G5C A14U G35C G36U yielded a self-cleavage of 0.07.
A6C A16U G29A showed a self-cleavage of 1.34.
Work on C10U C15G C18G yielded a self-cleavage of 0.02.
A24U U34A A41U gave a self-cleavage of 0.04.
C15G G17C G21C C42U showed a self-cleavage of 0.01.
With G5C C13A G21A C45A the self-cleavage was 0.02.
In the case of G2C C15G A16U G19C A25C, the self-cleavage is reported as 0.
With C3U G7U C10G G19A U20C G21U C37U C42U the self-cleavage was 0.01.
Work on C3G C31G A41C yielded a self-cleavage of 0.04.
With A12G G17A C45G the self-cleavage was 0.02.
Work on U9A A11G G17C G27U G35U G44U yielded a self-cleavage of 0.
Work on C15U A39U U43C yielded a self-cleavage of 0.02.
A16G A26G G35A showed a self-cleavage of 0.03.
In the case of A11C G19C G35A, the self-cleavage is reported as 0.03.
Work on A11C G29U U43A yielded a self-cleavage of 0.01.
G5C A14C G30C G35U showed a self-cleavage of 0.07.
In the case of A11G A12C A16C G19C U28C C42A, the self-cleavage is reported as 0.01.
Variant G30C U32G C45A has a self-cleavage of 0.2.
Variant C8U G17A C45A C46A has a self-cleavage of 0.13.
For G1C A4C C18A U20A, the self-cleavage was 0.01.
In the case of C3U C8G U20A, the self-cleavage is reported as 0.13.
Work on A6G G7A C18U G22C yielded a self-cleavage of 0.07.
Variant A14U G29C G35C G40A has a self-cleavage of 0.07.
A6C C10A C13U G29C C31U gave a self-cleavage of 0.02.
With C8G A12U C18U the self-cleavage was 0.01.
G1A C18G A25C U28A U43A showed a self-cleavage of 0.05.
With U20A G21C U28A the self-cleavage was 0.65.
A14G A16G G40A gave a self-cleavage of 0.04.
Variant G7A A11G G17C A39G G44U has a self-cleavage of 0.02.
G22U G27U U34C G35C showed a self-cleavage of 0.26.
With G33U C45A C46U the self-cleavage was 0.02.
With A4G C8A A16U U34G G35U C37A the self-cleavage was 0.05.
Work on A12U G17C G22A C31G G36C G40U yielded a self-cleavage of 0.
In the case of A25C A26C A39G, the self-cleavage is reported as 0.03.
Variant A11U A24U G44A has a self-cleavage of 0.01.
Work on G21U G29U G33U G35U yielded a self-cleavage of 0.05.
Work on G1A G2A G19A G27U yielded a self-cleavage of 2.94.
A6C C8A C13A C23A showed a self-cleavage of 0.54.
With A14G U28C G29A the self-cleavage was 0.22.
For C8U A12C C15A G17A C18A G30C, the self-cleavage was 0.01.
For C13U C15A G17A, the self-cleavage was 0.01.
For C13A G36U G44U, the self-cleavage was 0.05.
For A4U C13A C23A C31U G33U, the self-cleavage was 0.02.
Variant C10A C18G G22C G44U C46A has a self-cleavage of 0.06.
Work on G5A C10U A16U U43C yielded a self-cleavage of 0.07.
Work on A4G G5U C23G G29C A39G yielded a self-cleavage of 0.02.
Work on U20A G36A A39C yielded a self-cleavage of 1.63.
G1C G7C C45G showed a self-cleavage of 0.03.
C31U G33A U34G G35U C42G gave a self-cleavage of 0.03.
With G5C G30U C31U the self-cleavage was 0.01.
C10A C13G U34G gave a self-cleavage of 0.02.
Variant C3A A16U G19C G21A has a self-cleavage of 0.7.
G1C G30A C31A G40U gave a self-cleavage of 0.02.
A12G G17U G33U showed a self-cleavage of 0.05.
C8A U34C C45U gave a self-cleavage of 0.31.
C8G A12U C18U U43A showed a self-cleavage of 0.
In the case of C10G U20G A39G G40U, the self-cleavage is reported as 0.01.
For G7A C8G C18G A25C G27U U32G, the self-cleavage was 0.02.
G5A C15G G17U gave a self-cleavage of 0.03.
U20C U28A G30A gave a self-cleavage of 1.02.
With G7C A25G U32A G33U the self-cleavage was 0.03.
C3A C10A U28A A39U showed a self-cleavage of 0.02.
In the case of C3A A14C G35C C45A, the self-cleavage is reported as 0.06.
Work on C3G A16U G19C G22U C45U yielded a self-cleavage of 0.64.
For C8A G22A C23G G29A C31U G44U, the self-cleavage was 0.14.
A4G C18A A26G U34A G44U gave a self-cleavage of 0.06.
Work on G2C C3U G27U U32A yielded a self-cleavage of 0.05.
G1C A16G C45A showed a self-cleavage of 0.07.
In the case of G2U U20A G22A, the self-cleavage is reported as 0.06.
With C15G G17U G19U A26C C46U the self-cleavage was 0.
Variant G19A G22C A26G G27A A41C has a self-cleavage of 0.08.
In the case of C13A C15A A25C G29U, the self-cleavage is reported as 0.22.
Variant G7U U20A U34C has a self-cleavage of 0.15.
Work on A4U A12G U32G C42U yielded a self-cleavage of 0.02.
Variant A26U C31U G44C has a self-cleavage of 0.02.
With G7U C10A C15U A39C the self-cleavage was 0.15.
For U9C C18A A24C C31A, the self-cleavage was 0.02.
For C3A A11U G36U, the self-cleavage was 0.04.
With C23U G29U A39U the self-cleavage was 0.61.
Work on C3A C10U G21U G44C yielded a self-cleavage of 0.06.
C10U C13G A24U U28C gave a self-cleavage of 0.03.
Work on G21C C31U G40U C42U yielded a self-cleavage of 0.03.
In the case of A12U C13A A14U A26C U32A G36C U38A A39G C46U, the self-cleavage is reported as 0.03.
In the case of G2C A12U A24G G33C A39U, the self-cleavage is reported as 0.01.
G21A G22A C31G G36C gave a self-cleavage of 0.04.
G7U C8A G27A U32G gave a self-cleavage of 0.21.
A6U C10U G35U showed a self-cleavage of 0.03.
Work on G5A A11G A26C U32G A41G yielded a self-cleavage of 0.01.
C15A C31U G33U gave a self-cleavage of 0.13.
C23U G27C G33C A41C gave a self-cleavage of 0.03.
In the case of A11U A16G U28G U38A, the self-cleavage is reported as 0.
With G2U A14C C37U A41U the self-cleavage was 0.01.
G7A C15G C31A gave a self-cleavage of 0.54.
Variant G1A G7A G22A A24U A39G has a self-cleavage of 0.07.
Work on C10A C23A U34G U38G yielded a self-cleavage of 0.04.
With G2A G5U C8A G44C the self-cleavage was 0.58.
With U34A G35C G36U the self-cleavage was 0.02.
In the case of G7C A12U C23U U43C, the self-cleavage is reported as 0.05.
Variant A6C A12G C23U G33U has a self-cleavage of 0.03.
In the case of G2C G7A C10A, the self-cleavage is reported as 0.03.
